The full ranking holds about 33,000 sequences; the median of “E-score (-0.5 to 0.5)” is about -0.012, and the highest 2% start at about 0.27. The list shows a part of the results.
Each sequence was assayed against T1, Vhr1 (UniProt P40522) (assay: PBM E-score (8-mer binding enrichment) (E-score (-0.5 to 0.5)); higher = stronger / more preferred TF binding; most listed sequences are background and not binding sites). Conditions: protein concentration: 200 nM; construct: GST-full length.
T1 sequence: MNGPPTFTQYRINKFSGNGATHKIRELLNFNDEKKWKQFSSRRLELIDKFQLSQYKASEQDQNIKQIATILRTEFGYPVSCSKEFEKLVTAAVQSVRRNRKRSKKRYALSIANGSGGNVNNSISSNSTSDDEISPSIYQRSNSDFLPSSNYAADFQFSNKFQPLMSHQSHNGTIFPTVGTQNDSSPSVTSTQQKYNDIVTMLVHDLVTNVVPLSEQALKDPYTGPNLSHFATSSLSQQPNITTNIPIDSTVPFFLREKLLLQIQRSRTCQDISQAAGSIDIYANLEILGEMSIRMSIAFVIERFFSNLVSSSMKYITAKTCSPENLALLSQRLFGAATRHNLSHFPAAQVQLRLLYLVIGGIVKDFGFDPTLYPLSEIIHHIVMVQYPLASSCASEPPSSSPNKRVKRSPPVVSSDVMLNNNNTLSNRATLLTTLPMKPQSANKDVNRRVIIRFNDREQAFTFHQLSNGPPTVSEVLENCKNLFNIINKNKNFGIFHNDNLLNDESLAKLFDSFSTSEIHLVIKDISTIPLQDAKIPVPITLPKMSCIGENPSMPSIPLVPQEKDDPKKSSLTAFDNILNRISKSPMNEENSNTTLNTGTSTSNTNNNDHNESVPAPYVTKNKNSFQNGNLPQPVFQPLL
In short: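 Yeast transcription factors, full-length or as DNA-binding domains, were expressed with a GST tag using PURExpress in vitro transcription/translation. At about 100-200 nM they were applied to universal all-10-mer Agilent arrays, double-stranded by primer extension on fresh or once-stripped slides. Fluorescent anti-GST detected bound protein, and masliner normalised the scans. E-scores for ungapped eight-base words, pooled with reverse complements, came from the Universal PBM Analysis Suite.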

ACTGGGTG was tested. Which “PBM E-score” value did it give?
The value was 0.25.

Which “PBM E-score” value does the source give for ACTCTTTC here?
The value was -0.172.

With ATCTAGAA as the sequence, how does the “PBM E-score” value read?
Its value is -0.192.

For CCTTCTGA, which “PBM E-score” value is on record?
Its value is -0.149.

ACGCATGG was tested. Which “PBM E-score” value did it give?
The value was 0.114.

How did the “PBM E-score” value turn out when GATATCGC was run?
Its value is 0.00024.

How did the “PBM E-score” value turn out when ACGTACGG was run?
Its value is -0.115.

Which “PBM E-score” value does the source give for GAATAGAA here?
The value was -0.0552.

For AGACCGAA, which “PBM E-score” value is on record?
Its value is 0.12.

CTGCTAAG was tested. Which “PBM E-score” value did it give?
The value was -0.346.

For AAGCCGTA, which “PBM E-score” value is on record?
Its value is -0.0567.

For GTGGGTCA, which “PBM E-score” value is on record?
Its value is 0.365.

How did the “PBM E-score” value turn out when AAGGCAGT was run?
Its value is -0.0436.

AAGGCATA was tested. Which “PBM E-score” value did it give?
The value was -0.129.

For ACACAACG, which “PBM E-score” value is on record?
The value was 0.165.

For AACTCGCC, which “PBM E-score” value is on record?
The value was 0.00825.

For ACTAGACC, which “PBM E-score” value is on record?
The value was 0.0898.

ATCGGTGC was tested. Which “PBM E-score” value did it give?
The value was 0.0297.

AATCATTC was tested. Which “PBM E-score” value did it give?
The value was 0.251.

ACTTACCG was tested. Which “PBM E-score” value did it give?
The value was 0.0832.

For CACCTGTA, which “PBM E-score” value is on record?
The value was -0.0847.

How did the “PBM E-score” value turn out when GGAGGCAC was run?
Its value is -0.089.

With ATACAAAG as the sequence, how does the “PBM E-score” value read?
The value was -0.0042.

For GCACACGA, which “PBM E-score” value is on record?
Its value is 0.0343.

For CGAGGGCA, which “PBM E-score” value is on record?
Its value is -0.00827.

For ATCGCTAA, which “PBM E-score” value is on record?
The value was -0.0716.

With ACACTGGG as the sequence, how does the “PBM E-score” value read?
The value was -0.0839.

For ATATCTTA, which “PBM E-score” value is on record?
Its value is 0.0729.

Which “PBM E-score” value does the source give for ACGCCAGG here?
Its value is 0.21.

Which “PBM E-score” value does the source give for AACTTACT here?
Its value is -0.0933.

How did the “PBM E-score” value turn out when GGAATGCC was run?
Its value is -0.0345.

Which “PBM E-score” value does the source give for TCATCTCA here?
The value was 0.201.

For CCGATGTC, which “PBM E-score” value is on record?
The value was 0.00649.

Which “PBM E-score” value does the source give for CAGCTAAC here?
Its value is -0.15.

Which “PBM E-score” value does the source give for CGCTTGTA here?
Its value is -0.0149.

With ACCTAGGA as the sequence, how does the “PBM E-score” value read?
Its value is 0.0481.

How did the “PBM E-score” value turn out when GCCGGCAA was run?
The value was -0.216.

How did the “PBM E-score” value turn out when AAAGGGAG was run?
The value was -0.0894.

How did the “PBM E-score” value turn out when CTATTGTA was run?
The value was 0.0701.

For GCCGCTAA, which “PBM E-score” value is on record?
The value was -0.223.

How did the “PBM E-score” value turn out when AGCTGTAC was run?
The value was 0.016.

Which “PBM E-score” value does the source give for ATTCATGG here?
The value was 0.21.

With ACCTGCAA as the sequence, how does the “PBM E-score” value read?
Its value is -0.106.

How did the “PBM E-score” value turn out when CAATTCTA was run?
Its value is -0.108.

Which “PBM E-score” value does the source give for CGCCAAGA here?
Its value is -0.0615.

With ATACATGA as the sequence, how does the “PBM E-score” value read?
Its value is 0.118.

CCCATGGA was tested. Which “PBM E-score” value did it give?
The value was 0.0783.

For CATTGAAA, which “PBM E-score” value is on record?
Its value is -0.0955.

GCACCACA was tested. Which “PBM E-score” value did it give?
Its value is -0.0353.

For TAACGAGA, which “PBM E-score” value is on record?
The value was -0.0121.

For AGCACCAG, which “PBM E-score” value is on record?
The value was -0.0111.

For CCGCCTCC, which “PBM E-score” value is on record?
The value was 0.00022.

Which “PBM E-score” value does the source give for CGACCTTA here?
Its value is -0.116.

How did the “PBM E-score” value turn out when AAGTTCTA was run?
The value was -0.221.

How did the “PBM E-score” value turn out when AATAGGTA was run?
Its value is -0.0075.

Which “PBM E-score” value does the source give for AAAACCAT here?
The value was 0.0569.

How did the “PBM E-score” value turn out when AGATGTGC was run?
Its value is -0.0463.

Which “PBM E-score” value does the source give for TTATTGAA here?
The value was -0.115.

Which “PBM E-score” value does the source give for CGGTGGCA here?
The value was -0.116.

With AGGCATAT as the sequence, how does the “PBM E-score” value read?
Its value is -0.0741.

ATAGGAAC was tested. Which “PBM E-score” value did it give?
The value was -0.151.

CCGGCCCG was tested. Which “PBM E-score” value did it give?
The value was 0.231.

Which “PBM E-score” value does the source give for GGTATACA here?
The value was 0.168.

AAACAGAG was tested. Which “PBM E-score” value did it give?
Its value is 0.0118.

For ATACCTTG, which “PBM E-score” value is on record?
Its value is 0.0232.

Which “PBM E-score” value does the source give for CAGAGTTA here?
Its value is 0.103.

How did the “PBM E-score” value turn out when CGACCGTA was run?
Its value is -0.0441.

With ACGATTGA as the sequence, how does the “PBM E-score” value read?
Its value is 0.0265.

CCACCCGA was tested. Which “PBM E-score” value did it give?
Its value is 0.118.

GGGTTCCA was tested. Which “PBM E-score” value did it give?
The value was -0.158.

With ACTGCAGG as the sequence, how does the “PBM E-score” value read?
Its value is -0.157.

For GAGCCCTC, which “PBM E-score” value is on record?
The value was -0.132.

How did the “PBM E-score” value turn out when GTGCTATA was run?
The value was 0.0366.

With CTTCAAGC as the sequence, how does the “PBM E-score” value read?
Its value is -0.137.

Which “PBM E-score” value does the source give for ACGTCCAG here?
The value was -0.147.

Which “PBM E-score” value does the source give for AGAAGACT here?
Its value is -0.0827.

Which “PBM E-score” value does the source give for ATAATTTA here?
The value was 0.235.

Which “PBM E-score” value does the source give for TACGTTAA here?
Its value is -0.191.

AGAATCTC was tested. Which “PBM E-score” value did it give?
The value was -0.111.

CGTACCCA was tested. Which “PBM E-score” value did it give?
Its value is 0.16.

For GCTCATTA, which “PBM E-score” value is on record?
The value was -0.0493.

With ATTACGGC as the sequence, how does the “PBM E-score” value read?
The value was -0.0276.

With GTTGGAAA as the sequence, how does the “PBM E-score” value read?
The value was -0.0799.

With CATTTGCG as the sequence, how does the “PBM E-score” value read?
The value was -0.0267.

With AGTGCGAA as the sequence, how does the “PBM E-score” value read?
The value was -0.189.

With CTAGCCAA as the sequence, how does the “PBM E-score” value read?
The value was 0.0453.
